Test results as given in PubChem BioAssay AID1240 (Sanford-Burnham Center for Chemical Genomics, 2008).
The campaign covered roughly 50,000 compounds. About 800 (1.6%) showed an effect of 50% or more. The list shows a part of the results.

Target: Bcl-2-like protein 10 (Homo sapiens) (UniProt Q9HD36)
Assay: Phenotype converters, Bcl-B/TR3 peptide binding displacement, primary biochemical FP (AID 1240);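 further: 0% = Bcl-B with tracer peptide and DMSO and 100% = tracer peptide lacking Bcl-B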
Conditions: GST-Bcl-B / FITC-TR3 peptide fluorescence polarization; stronger effect = higher value; compound at 3.75 mg/L

Chain of UniProt Q9HD36 (Q9HD36 whole entry, looked up): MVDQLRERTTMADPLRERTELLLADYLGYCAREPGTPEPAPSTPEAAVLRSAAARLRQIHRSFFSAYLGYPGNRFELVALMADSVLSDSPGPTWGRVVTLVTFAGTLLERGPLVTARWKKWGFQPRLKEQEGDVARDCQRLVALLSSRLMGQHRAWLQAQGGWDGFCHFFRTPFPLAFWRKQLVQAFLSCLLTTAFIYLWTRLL

Q: With `COc1ccc(C(=O)Nc2cc(C)cc(C)n2)cc1` as the compound, how does the displacement read?
A: The displacement was 13.1%.

Q: With `COC(=O)C1=CNC=C(C(=O)OC)C1c1cc(OC)c(OC)c(OC)c1` as the compound, how does the displacement read?
A: Its displacement is 1.8%.

Q: Which displacement does the source give for `CCOc1ccc(NC(=O)c2ccc(Cl)c([N+](=O)[O-])c2)cc1` here?
A: The displacement was 8.9%.

Q: Which displacement does the source give for `O=C(Nc1ccc(I)cc1Cl)c1cc2ccccc2oc1=O` here?
A: The displacement was -13.9%.

Q: With `Cc1oc(C(=O)O)cc1COc1ccc(-c2ccccc2)cc1` as the compound, how does the displacement read?
A: Its displacement is 11.6%.

Q: How did the displacement turn out when `CCOc1ccccc1NC(=O)CN(c1cccc(C(F)(F)F)c1)S(C)(=O)=O` was run?
A: The displacement was 0.7%.

Q: How did the displacement turn out when `COCCCNC(=O)CC(=O)N/N=C/c1cccc(OC)c1OC` was run?
A: Its displacement is 11.3%.

Q: With `COc1cccc(/C=C2\SC(=S)N(Cc3ccccc3)C2=O)c1O` as the compound, how does the displacement read?
A: Its displacement is 0%.

Q: `O=C(N=Nc1c(O)[nH]c2c(Br)cc(Br)cc12)C(O)c1ccccc1` (stereo not given) was tested. Which displacement did it give?
A: The displacement was 2.1%.

Q: For `CCN(CC)Cc1c(O)ccc2c(=O)c(Oc3ccccc3Br)coc12`, which displacement is on record?
A: Its displacement is -4.6%.

Q: Which displacement does the source give for `CCOC(=O)CN1C(c2cc(OC)c(OC)c(OC)c2)=Nc2ccc(Br)cc2C1c1ccccc1` (stereo not given) here?
A: The displacement was -8.8%.

Q: With `C=CCc1cccc2cc(C(=O)Nc3cc(OC)ccc3OC)c(=O)oc12` as the compound, how does the displacement read?
A: The displacement was 2%.

Q: `O=C1C=C(Nc2ccccc2)C(=O)N1Cc1ccccc1` was tested. Which displacement did it give?
A: The displacement was 12.4%.

Q: With `COc1ccc(N2C(=O)NC(=O)/C(=C/c3ccc(Sc4ccc(C)cc4)o3)C2=O)cc1` as the compound, how does the displacement read?
A: The displacement was 125%.

Q: How did the displacement turn out when `Cc1sc(NC(=O)c2ccc([N+](=O)[O-])cc2Cl)nc1-c1ccccc1` was run?
A: Its displacement is -4%.

Q: Which displacement does the source give for `O=C(CSc1nnc(-c2ccco2)n1-c1ccccc1)NCc1ccco1` here?
A: The displacement was 1.8%.

Q: `O=C(Cc1ccc(Cl)cc1)Nc1cc(Cl)c(Cl)cc1Cl` was tested. Which displacement did it give?
A: Its displacement is 0.6%.

Q: How did the displacement turn out when `CCOc1ccc2nc(NC(=O)c3ccccc3[N+](=O)[O-])sc2c1` was run?
A: The displacement was -6.9%.

Q: For `O=C(Nc1ccc(S(=O)(=O)Nc2ncccn2)cc1)c1ccco1`, which displacement is on record?
A: Its displacement is 0.6%.

Q: Which displacement does the source give for `O=C1NC(=O)C(=Cc2cccc(OS(=O)(=O)c3ccc([N+](=O)[O-])cc3)c2)C(=O)N1` here?
A: Its displacement is -1.7%.

Q: For `CN(C)c1ccc(/C=N/N2C(=O)c3cccc4cccc(c34)C2=O)cc1`, which displacement is on record?
A: The displacement was -10.7%.

Q: How did the displacement turn out when `NC(=O)CSc1nc2ccccc2n1CCOc1ccc(Cl)cc1` was run?
A: The displacement was 8.4%.

Q: How did the displacement turn out when `O=C(O)c1ccccc1-c1ccccc1C(=O)N(Cc1ccccc1)c1ccccc1` was run?
A: Its displacement is -5.1%.

Q: Which displacement does the source give for `CCP(=O)(CC)C(C)(C)CP(=O)(c1ccccc1)c1ccccc1` here?
A: The displacement was 14.6%.

Q: With `Cc1c(C(=O)Nc2cccc(-c3nc4ccccc4o3)c2)cccc1[N+](=O)[O-]` as the compound, how does the displacement read?
A: Its displacement is -3.2%.

Q: How did the displacement turn out when `N#C/C(=C\c1ccc(-c2ccccc2)o1)C(=O)Nc1ccc(C#N)cc1` was run?
A: The displacement was 168%.

Q: For `Fc1ccccc1C=NN1CCN(c2ccccn2)CC1`, which displacement is on record?
A: The displacement was -5.3%.

Q: How did the displacement turn out when `CCOC(=O)C1=C(N)c2ccccc2CC1(C)C1CCCCC1` (stereo not given) was run?
A: Its displacement is -15.9%.

Q: Which displacement does the source give for `O=C(NCCN1CCNCC1)C(=O)NCc1ccco1` here?
A: The displacement was 1.8%.

Q: For `N/C(=N\OC(=O)c1ccccc1Br)c1ccccc1`, which displacement is on record?
A: Its displacement is -12.2%.
